Read counts are not given, so values of variants with three or more changes are uncertain.
B1: OR4K15 (parent)
chain: GUUAACGGUCAUAGGCCAUGGAAACUAGGAGCACCAUUUCGCUGCCAGUGAAGAAAUGAACAAAGAAAAUCUGGGCCAGGCAGGCAUCAAAAGAAAUAGUCUUGCGCUCAACCAGAAAGUCUGUAAUCAUUUUAAGGGUA

Variants of: B1
Assay: self-cleavage, relative activity (ratio to wild type); higher = more cleavage; in vitro, sequencing; the parent is a self-cleaving ribozyme
A23G A91G U127C showed a self-cleavage of 0.6.
A23G C77U U102C gave a self-cleavage of 1.05.
In the case of A23G A51G A55G A60G A111G, the self-cleavage is reported as 0.05.
A23G A33U U70C U97A A110G U130A gave a self-cleavage of 0.05.
With A23G G50A A52G A55G the self-cleavage was 1.09.
For A23G U37G A96G U100C, the self-cleavage was 1.72.
In the case of A23G A33C U87C, the self-cleavage is reported as 1.16.
For A23G A67G U108C U120C, the self-cleavage was 0.01.
Work on A23G A36G U38C yielded a self-cleavage of 1.73.
A23G A33G G65A U120C gave a self-cleavage of 0.34.
In the case of A23G A52G A66G U70C, the self-cleavage is reported as 0.55.
In the case of A23G A62G U103C, the self-cleavage is reported as 0.5.
With A23G A69G A86G the self-cleavage was 1.74.
In the case of A23G A59G A118G U132C, the self-cleavage is reported as 1.26.
A23G C101A U131C showed a self-cleavage of 0.09.
A23G A55G U124C showed a self-cleavage of 1.19.
With A23G A67G A117U U120C the self-cleavage was 0.41.
Variant A23G A47C A54G A60G A116C has a self-cleavage of 0.02.
With A23G A47G A60G A82U A111G the self-cleavage was 0.04.
A23G A54U A111G gave a self-cleavage of 0.06.
Work on A23G U38C U39C A47G yielded a self-cleavage of 1.47.
A23G A33U C85U gave a self-cleavage of 0.23.
A23G A63G U139C A140G showed a self-cleavage of 1.09.
With A23G A66G A114G the self-cleavage was 0.53.
A23G A64G U132A gave a self-cleavage of 1.34.
A23G U37C A52G A62G gave a self-cleavage of 1.51.
For A23G A92G U108C, the self-cleavage was 0.08.
With A23G G53A U70C the self-cleavage was 0.48.
Work on A23G A56G A67G yielded a self-cleavage of 1.03.
A23G U37C U108C A114U showed a self-cleavage of 0.
Work on A23G A33G U122C yielded a self-cleavage of 1.15.
In the case of A23G G28C U43C A63U A67G U103C G104A, the self-cleavage is reported as 0.05.
A23G G44U A69G A78G gave a self-cleavage of 0.29.
In the case of A23G A33G A47G A60G C77A, the self-cleavage is reported as 0.65.
A23G U38C A60U gave a self-cleavage of 1.72.
A23G C45U A51G G74A showed a self-cleavage of 0.22.
A23G G80C A95G A117G showed a self-cleavage of 0.05.
With A23G U37A A59U U87C the self-cleavage was 1.04.
A23G U38C A68G gave a self-cleavage of 1.32.
With A23G A64G A66G A110U the self-cleavage was 0.48.
In the case of A23G A47U A86G A126G, the self-cleavage is reported as 0.19.
A23G U38C U70C U100C U122C showed a self-cleavage of 1.27.
A23G A62G U139A showed a self-cleavage of 1.35.
In the case of A23G A51G U133C, the self-cleavage is reported as 1.35.
A23G A82G A117U gave a self-cleavage of 0.72.
A23G U38C A54U gave a self-cleavage of 1.32.
With A23G G74A A86G the self-cleavage was 0.1.
In the case of A23G A125G A135G, the self-cleavage is reported as 0.44.
In the case of A23G A63U U72C, the self-cleavage is reported as 0.39.
Work on A23G G31A U57C yielded a self-cleavage of 0.36.
With A23G A36U A60G the self-cleavage was 0.64.
A23G U26C A30G A52G A68G showed a self-cleavage of 0.32.
In the case of A23G A96U U139C, the self-cleavage is reported as 1.25.
Work on A23G A89G U102C yielded a self-cleavage of 1.31.
With A23G C32U A36G A98G C112U U122A the self-cleavage was 0.01.
For A23G A68G A118G, the self-cleavage was 1.55.
Variant A23G A52U A89G has a self-cleavage of 1.2.
Work on A23G A62C U103A yielded a self-cleavage of 0.58.
In the case of A23G A91G A92G U122C, the self-cleavage is reported as 0.91.
Variant A23G U39A A63U A90G A95G has a self-cleavage of 1.2.
Work on A23G A54G A60G A91G yielded a self-cleavage of 0.62.
A23G C25U U131G showed a self-cleavage of 0.93.
For A23G A60G A62C A64G, the self-cleavage was 0.44.
A23G A60C A92G U100A gave a self-cleavage of 0.48.
With A23G A52G A68G G115A the self-cleavage was 0.12.
Work on A23G A47G A82U A89G A116G A129U yielded a self-cleavage of 0.02.
For A23G A67G A110C, the self-cleavage was 0.05.
A23G A68G U72A showed a self-cleavage of 0.47.
For A23G U37A A126G U132C, the self-cleavage was 1.68.
In the case of A23G A47C A135G, the self-cleavage is reported as 0.49.
In the case of A23G A89U A111G, the self-cleavage is reported as 0.22.
In the case of A23G A52G A56G U87C A90G, the self-cleavage is reported as 0.32.
With A23G A33C U43C the self-cleavage was 2.71.
A23G A30G U57C showed a self-cleavage of 1.21.
With A23G A98U U100C the self-cleavage was 1.46.
In the case of A23G U37C A63G A126U, the self-cleavage is reported as 0.88.
A23G U39A A86G gave a self-cleavage of 1.45.
Work on A23G C85G U122C yielded a self-cleavage of 0.64.
For A23G A59G A92U A125G, the self-cleavage was 0.49.
A23G A66G U122A gave a self-cleavage of 1.06.
In the case of A23G G65A U100G, the self-cleavage is reported as 1.21.
A23G A60G G80U U102C showed a self-cleavage of 0.23.
With A23G A68U A78U A116G the self-cleavage was 0.05.
Variant A23G A78U A94U has a self-cleavage of 0.7.
In the case of A23G U37C A64G, the self-cleavage is reported as 1.53.
For A23G A82G A111G, the self-cleavage was 0.08.
With A23G A47G A56G the self-cleavage was 1.06.
Work on A23G U37C A117G U122C yielded a self-cleavage of 1.02.
Work on A23G A52G A78U U87A yielded a self-cleavage of 0.55.
For A23G A51G U87C U120C, the self-cleavage was 0.86.
A23G A36U C105G showed a self-cleavage of 0.06.
A23G A110U A125G showed a self-cleavage of 0.41.
With A23G U38A U57A the self-cleavage was 1.2.
In the case of A23G A47G A86G, the self-cleavage is reported as 2.13.
A23G A36G A52G G137U gave a self-cleavage of 1.26.
Work on A23G A116G A125G yielded a self-cleavage of 0.14.
With A23G A51G U72C G75A A94G A111G U120C the self-cleavage was 0.01.
Variant A23G A54G A62G U127C has a self-cleavage of 1.51.
For A23G A62G A68G, the self-cleavage was 0.64.
With A23G G41A A51G A91G the self-cleavage was 0.27.
With A23G A66G U102C the self-cleavage was 1.78.
Work on A23G A59U U70C yielded a self-cleavage of 0.42.
A23G A33G A78U C113U showed a self-cleavage of 0.02.
In the case of A23G U26G A126G U130C, the self-cleavage is reported as 1.15.
Work on A23G G73A C105U yielded a self-cleavage of 0.04.
For A23G A63G U102C U131C, the self-cleavage was 1.99.
Work on A23G A56G U87C A116G U124C U127C yielded a self-cleavage of 0.14.
For A23G U37C A96G, the self-cleavage was 1.42.
A23G A51G A59U gave a self-cleavage of 0.28.
Work on A23G A66U A89G yielded a self-cleavage of 1.07.
For A23G A59U U97C A129G, the self-cleavage was 1.12.
For A23G A69G U127C, the self-cleavage was 0.43.
A23G C77U A96G U97C A118G showed a self-cleavage of 1.37.
In the case of A23G A33G A51U A54G A55G A59G, the self-cleavage is reported as 0.93.
For A23G A96U U102C C105U A114U, the self-cleavage was 0.
Variant A23G C40U A52U A96G U130C has a self-cleavage of 1.48.
Work on A23G A51G A62C A68G G106A yielded a self-cleavage of 0.02.
Variant A23G A33G A47G has a self-cleavage of 0.66.
A23G A51U A54G A64G U70C C71A gave a self-cleavage of 0.61.
Variant A23G A60G U70A has a self-cleavage of 1.22.
For A23G A63G A64G A68U A114G, the self-cleavage was 0.76.
A23G G41U A52G A67G A96C showed a self-cleavage of 0.39.
With A23G A36G A51C the self-cleavage was 0.57.
In the case of A23G C77U A126G, the self-cleavage is reported as 0.9.
Variant A23G A52G A54G U87C A94U U122A has a self-cleavage of 0.39.
With A23G A51U A63G the self-cleavage was 0.82.
For A23G U37C U43A A86U, the self-cleavage was 1.18.
In the case of A23G A47U A60G, the self-cleavage is reported as 0.8.
With A23G G31C A52G U108C the self-cleavage was 0.05.
In the case of A23G A51G A110U, the self-cleavage is reported as 1.4.
With A23G A30U A55G U87C the self-cleavage was 0.78.
Variant A23G C76U A140G has a self-cleavage of 0.08.
In the case of A23G A47G U131C, the self-cleavage is reported as 0.17.
Work on A23G U37C A64U C77U A94G yielded a self-cleavage of 1.18.
A23G A82G U127A showed a self-cleavage of 1.09.
A23G A56G A96G U103G gave a self-cleavage of 0.11.
A23G U39A A55U A82G U122C A129C showed a self-cleavage of 0.04.
With A23G A69G A82G A92G U120C the self-cleavage was 0.29.
A23G A60G A78G U139C showed a self-cleavage of 0.16.
A23G A89G A126U showed a self-cleavage of 0.56.
For A23G A47G A55G, the self-cleavage was 0.89.
For A23G A36G G123A, the self-cleavage was 1.2.
With A23G C40U A135U the self-cleavage was 1.78.
In the case of A23G A60G A78U, the self-cleavage is reported as 0.4.
Work on A23G A52G A67G A118G yielded a self-cleavage of 1.
For A23G A33G A52G, the self-cleavage was 0.78.
Variant A23G C45G A64G has a self-cleavage of 1.14.
With A23G A30U A51G A67G A90G the self-cleavage was 0.18.
Variant A23G A67G U103C has a self-cleavage of 0.03.
For A23G A62U A89G U131C, the self-cleavage was 0.61.
A23G A82G U102G showed a self-cleavage of 0.08.
Variant A23G A33G A59U G74U has a self-cleavage of 0.17.
A23G A64G A78G A90G A91G gave a self-cleavage of 0.12.
In the case of A23G A33G U49C A68C A94G, the self-cleavage is reported as 0.65.
A23G A82U A91G A117G U120A showed a self-cleavage of 0.09.
In the case of A23G A78G U131G, the self-cleavage is reported as 0.16.
Variant A23G A36U U38C A68G A111G has a self-cleavage of 0.
A23G A36G A78U showed a self-cleavage of 0.59.
Work on A23G A94G U102C yielded a self-cleavage of 1.42.
Variant A23G A52G U103A U108C U132C has a self-cleavage of 0.03.
A23G A82G U87C A91G U102C showed a self-cleavage of 0.76.
In the case of A23G U38G A78G C112U U120A, the self-cleavage is reported as 0.01.
Work on A23G A54G A86G yielded a self-cleavage of 1.22.
Variant A23G A52G A69G A96G has a self-cleavage of 1.18.
In the case of A23G A33G A82G U127G, the self-cleavage is reported as 0.26.
For A23G U38C A67C U108C, the self-cleavage was 0.04.
A23G A78C A140G gave a self-cleavage of 0.15.

— the RNAGym collection of RNA variant scans (doi:10.7554/elife.90254)
